Laboratory results reported in patent CN117247457A (SANYOU BIO INC, dated 2023).

Target: T1, 人PD-L1 expressed on cells (huPD-L1-CHO-S细胞) (human, UniProt Q9NZQ7)
T1 construct: whole, on cells; also called CD3L-PD-L1-CHO细胞 (reporter assay); 细胞上表达的PD-L1
Assay: FACS blocking: antibody on huPD-L1-CHO-S cells, then biotinylated PD-1-His (1 ug/mL), PE-streptavidin

T1 sequence (Q9NZQ7 19-290): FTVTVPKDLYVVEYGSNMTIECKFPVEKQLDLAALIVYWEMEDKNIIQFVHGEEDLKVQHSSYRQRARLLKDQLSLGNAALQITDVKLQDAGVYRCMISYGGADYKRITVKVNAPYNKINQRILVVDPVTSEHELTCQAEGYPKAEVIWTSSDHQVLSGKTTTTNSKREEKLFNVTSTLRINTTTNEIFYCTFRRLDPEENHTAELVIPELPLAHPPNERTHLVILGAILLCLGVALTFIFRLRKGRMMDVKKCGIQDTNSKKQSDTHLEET

IC50: 6.64 nM
B1: 抗人PD-L1抗体D21-4 (VHH PD-L1-huFc) (Fc fusion)
chain: EVQLVESGGGLVQPGGSLRLSCAASRTDRNINTMHWYRQAPGKGREWVGTIFIDLNTIVTDSVKGRFTISRDNAKNTLYLQMNTLRAEDTAVYYCAADVSGYGRAWGQGTTVTVSS[left out - human IgG1 Fc]
notes: also called 对照抗体D21-4
